# The list shows a part of the results. The full chains were built here from the parent and the listed change. Inactive controls read about 0.05.
# B1: TEV protease; numbered along this chain (parent)
# chain: MGESLFKGPRDYNPISSSICHLTNESDGHTTSLYGIGFGPFIITNKHLFRRNNGTLVVQSLHGVFKVKDTTTLQQHLVDGRDMIIIRMPKDFPPFPQKLKFREPQREERICLVTTNFQTKSMSSMVSDTSCTFPSGDGIFWKHWIQTKDGQCGSPLVSTRDGFIVGIHSASNFTNTNNYFTSVPKNFMELLTNQEAQQWVSGWRLNADSVLWGGHKVFMVKPEEPFQPVKEATQL
# Variants of: B1
# Experiment: raw area under fraction-flipped curve 0-4 h after induction (AUC4h, not background-subtracted), DNA-recorder readout of cleavage of the substrate (dimensionless); higher = more cleavage of the substrate by the protease variant
# Settings: temperature: 34 °C; time window: 0-4 h after rhamnose induction
# Experimental: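 In vivo DNA recorder in E. coli TOP10(DE3) ΔrhaA at 34 °C. Each TEVp single-site mutant (parent TEVp 0) is paired with a single-site variant of the 7-mer TEVs (canonical ENLYFQ|S). The substrate sits between flexible linkers in a Bxb1-sfGFP-TEVs-SsrA fusion, so cleavage stabilises Bxb1 and speeds flipping of a recombination array, read by NGS. The value is the raw area under the fraction-flipped curve over 0-4 h after rhamnose induction (AUC4h), with ≥20 reads per time point. It is not background-subtracted; inactive controls average about 0.047.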
# 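Also: Bxb1 expression induced with 0.2% (w/v) L-rhamnose at OD600 near 0.5, cultures sampled hourly, flipped fraction per protease–substrate barcode pair counted by paired-end Illumina sequencing.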
Variant,area with substrate EALYFQS,area with substrate ECLYFQS,area with substrate EGLYFQS,area with substrate EILYFQS,area with substrate EKLYFQS,area with substrate ELLYFQS,area with substrate EQLYFQS,area with substrate EVLYFQS,area with substrate EWLYFQS,area with substrate EDLYFQS,area with substrate EFLYFQS,area with substrate EHLYFQS,area with substrate EMLYFQS,area with substrate EPLYFQS,area with substrate ERLYFQS,area with substrate ESLYFQS,area with substrate ETLYFQS,area with substrate EYLYFQS,area with substrate EELYFQS
I86H,0.0514,0.0282,0.0482,0.0562,0.0309,0.0402,0.0503,0.042,0.0573,,,,,,,,,,
F41Y,0.121,0.107,0.109,0.0994,,0.102,0.118,0.0814,0.0923,0.121,0.0933,0.113,0.112,0.0959,0.0906,0.102,0.109,,
F41E,0.0654,0.0584,,,,0.0485,,,,,0.0603,0.0511,0.0626,,0.0553,0.0589,,0.0592,
P94L,0.135,,0.0955,0.119,,,,0.144,,,,,,,0.134,,,,
P94C,0.161,0.144,,0.0915,,,0.129,,,,,0.15,,,,0.0948,0.159,,
Q97M,0.146,,0.0904,0.11,,,0.122,,0.0815,,,,0.136,,,0.0988,,0.131,0.142
T70C,0.0673,0.0697,,0.0731,,,0.0997,0.0917,,,0.0606,,0.0771,,0.0864,0.0893,,,
F92W,0.119,0.0829,,0.1,,,0.132,0.118,,0.126,,,0.131,,,0.107,,0.112,
F49T,0.0613,0.0573,0.0374,0.0572,0.0487,0.0544,0.0498,,0.0537,0.0618,,,,,,0.0554,,0.0609,0.057
L61Y,0.115,,0.0897,0.0799,0.0801,0.0741,0.125,0.0988,,,,0.0861,0.106,0.176,0.117,0.0954,,0.0961,0.138
R81Q,0.126,0.097,,,0.0665,,,,,,,0.0941,,0.0946,,,,,
T72M,0.0993,,0.083,0.0907,,0.044,0.135,,,,,0.0927,0.0969,0.126,0.1,0.0933,,,
V58I,0.146,,0.093,,0.108,,,,0.0931,,0.0984,,,,,,,,
V58W,0.0338,0.0543,,0.0647,0.0561,,0.0645,0.0841,,,,,,,,0.0496,,,
V58Y,0.105,0.0663,0.0669,0.0571,,,0.0759,0.0605,,0.0565,,,0.0685,,,0.0696,0.11,0.0721,
V58C,0.107,0.0531,,0.0787,0.114,0.0592,,0.0934,,0.132,,0.0931,,,,0.124,,0.0554,
F95P,0.0591,0.0487,0.0565,0.0471,0.0393,0.052,0.0649,,0.0609,,0.0535,,0.0728,,,0.0494,,,
F95Q,0.0783,0.0776,0.0853,,,,,,,,,0.0797,,,,0.083,0.105,,

Variant,area with substrate EALYFQS,area with substrate ECLYFQS,area with substrate EGLYFQS,area with substrate EILYFQS,area with substrate EKLYFQS,area with substrate ELLYFQS,area with substrate EQLYFQS,area with substrate EVLYFQS,area with substrate EWLYFQS,area with substrate EDLYFQS,area with substrate EFLYFQS,area with substrate EHLYFQS,area with substrate EMLYFQS,area with substrate EPLYFQS,area with substrate ERLYFQS,area with substrate ESLYFQS,area with substrate ETLYFQS,area with substrate EYLYFQS,area with substrate EELYFQS
D69V,0.114,0.0757,,0.0793,,,0.0773,0.0702,0.0713,0.0704,,0.0656,0.0782,,0.0707,0.0826,,0.0767,
R50S,0.141,0.106,0.0875,0.0992,0.0782,,0.0941,0.098,,,,0.0995,,,0.099,0.121,,0.0822,0.133
R50T,0.138,0.0988,0.0857,0.108,0.13,0.113,0.166,0.111,0.104,,,0.131,,0.146,0.168,0.115,0.114,,0.172
I85E,0.0424,0.0501,,0.0511,0.0347,,0.031,,,,0.0523,0.042,0.065,,0.0494,,,,
I85N,0.0545,0.0656,0.0679,0.0507,,0.0734,0.0568,,,0.0513,0.056,0.0484,0.0612,0.0493,0.0669,0.0424,,,
N53P,0.0873,,0.0715,,,,0.0874,,0.117,,0.057,0.0678,,,0.0763,,0.0772,,
N53H,0.0904,,0.0747,0.0709,,0.0847,0.112,0.0887,0.085,0.123,0.0759,0.0938,0.0962,0.0938,0.0795,0.0797,,,0.114
R87E,0.114,0.099,,,0.115,,,0.0738,,0.09,,,,,0.0932,0.103,,0.116,0.12
R87L,0.1,0.0567,0.052,0.081,,0.102,0.0987,,,,,,,,,0.0854,,,
R87M,0.122,,,,,,,,0.139,,0.107,0.114,,0.135,0.107,,0.0928,,
Q59C,0.133,0.117,0.0996,0.13,,,0.122,0.134,0.0952,0.161,,0.0857,0.111,,,0.0941,,,
Q59W,0.123,0.119,,0.105,0.109,0.0914,,0.1,,0.126,0.122,,0.132,0.118,,0.105,,,0.108
Q59S,0.115,,0.0962,0.116,0.106,,,0.0883,,,,,0.139,0.115,,0.101,,0.1,
L56N,0.0375,0.0473,,0.0432,0.027,,0.0494,0.0464,,0.0408,0.0837,0.041,0.0474,0.043,,,,,0.0393
D82C,0.095,,0.0575,,,0.0738,0.0439,0.0547,,0.0606,,,0.0516,0.0365,,0.0552,,,
D82S,0.0313,0.0467,,,,,0.0284,0.0565,0.0349,,,,,,,0.0568,,0.0495,0.0591
L73A,0.0648,0.0649,,,,,,0.0694,0.0522,,0.0553,0.0784,0.0633,,,0.0519,,,0.0768

# Source: the supplement of paper PMC12217912
